Reference: the supplement of paper PMC8728848
This is one part of the list.

Experiments:
Assay in all cases: glycan array binding signal (z-score within array); higher = stronger binding
Conditions in all cases: glycan notation: IUPAC condensed, linker removed
[1] = molecular target: GlcNAc(b1-2)Gal(b1-3)GalNAc
Procedure, shortened: (§1)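 Negative Z-scores can be read as non-binding. The Z-score is calculated within each array and then averaged across arrays of one protein sequence at different concentrations or buffers and across linkers. Arrays, 3228 in all, were curated from the Consortium for Functional Glycomics database and kept only where the protein sequence was available.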

[2] = molecular target: GlcNAc(b1-2)Man(a1-3)[GlcNAc(b1-2)Man(a1-6)]Man(b1-4)GlcNAc(b1-4)GlcNAc
Procedure, shortened: as §1

[3] = molecular target: GlcNAc(b1-2)Man(a1-3)[GlcNAc(b1-2)Man(a1-6)]Man(b1-4)GlcNAc(b1-4)[Fuc(a1-6)]GlcNAc
Procedure, shortened: as §1

[4] = molecular target: GlcNAc(b1-2)Man(a1-3)[GlcNAc(b1-4)][GlcNAc(b1-2)Man(a1-6)]Man(b1-4)GlcNAc(b1-4)GlcNAc
Procedure, shortened: as §1

[5] = molecular target: GlcNAc(b1-2)Man(a1-3)[GlcNAc(b1-4)][GlcNAc(b1-2)Man(a1-6)]Man(b1-4)GlcNAc(b1-4)[Fuc(a1-6)]GlcNAc
Procedure, shortened: as §1

[6] = molecular target: GlcNAc(b1-2)[GlcNAc(b1-4)]Man(a1-3)[GlcNAc(b1-2)Man(a1-6)]Man(b1-4)GlcNAc(b1-4)GlcNAc
Procedure, shortened: as §1

[7] = molecular target: GlcNAc(b1-2)[GlcNAc(b1-4)]Man(a1-3)[GlcNAc(b1-4)][GlcNAc(b1-2)Man(a1-6)]Man(b1-4)GlcNAc(b1-4)GlcNAc
Procedure, shortened: as §1

[8] = molecular target: GlcNAc(b1-2)[GlcNAc(b1-4)]Man(a1-3)[GlcNAc(b1-4)][GlcNAc(b1-2)[GlcNAc(b1-6)]Man(a1-6)]Man(b1-4)GlcNAc(b1-4)GlcNAc
Procedure, shortened: as §1

[9] = molecular target: GlcNAc(b1-2)[GlcNAc(b1-4)]Man(a1-3)[GlcNAc(b1-4)][GlcNAc(b1-2)[GlcNAc(b1-6)]Man(a1-6)]Man(b1-4)GlcNAc(b1-4)[Fuc(a1-6)]GlcNAc
Procedure, shortened: as §1

[10] = molecular target: GlcNAc(b1-2)[GlcNAc(b1-6)]Man(a1-6)[GlcNAc(b1-2)Man(a1-3)]Man(b1-4)GlcNAc(b1-4)GlcNAc
Procedure, shortened: as §1

[11] = molecular target: GlcNAc(b1-2)[GlcNAc(b1-6)]Man(a1-6)[GlcNAc(b1-2)Man(a1-3)]Man(b1-4)GlcNAc(b1-4)[Fuc(a1-6)]GlcNAc
Procedure, shortened: as §1

[12] = molecular target: GlcNAc(b1-2)[GlcNAc(b1-6)]Man(a1-6)[GlcNAc(b1-4)][GlcNAc(b1-2)Man(a1-3)]Man(b1-4)GlcNAc(b1-4)GlcNAc
Procedure, shortened: as §1

GlcNAc(b1-3)Fuc = molecular target: GlcNAc(b1-3)Fuc
Procedure, shortened: as §1

GlcNAc(b1-3)Gal = molecular target: GlcNAc(b1-3)Gal
Procedure, shortened: as §1

[13] = molecular target: GlcNAc(b1-3)Gal(b1-3)GalNAc
Procedure, shortened: as §1

GlcNAc(b1-3)Gal(b1-4)Glc = molecular target: GlcNAc(b1-3)Gal(b1-4)Glc
Procedure, shortened: as §1

[14] = molecular target: GlcNAc(b1-3)Gal(b1-4)GlcNAc
Procedure, shortened: as §1

[15] = molecular target: GlcNAc(b1-3)Gal(b1-4)GlcNAc(b1-2)Man(a1-3)[GlcNAc(b1-3)Gal(b1-4)GlcNAc(b1-2)Man(a1-6)]Man(b1-4)GlcNAc(b1-4)GlcNAc
Procedure, shortened: as §1

[16] = molecular target: GlcNAc(b1-3)Gal(b1-4)GlcNAc(b1-2)Man(a1-3)[GlcNAc(b1-3)Gal(b1-4)GlcNAc(b1-2)Man(a1-6)]Man(b1-4)GlcNAc(b1-4)[Fuc(a1-6)]GlcNAc
Procedure, shortened: as §1

[17] = molecular target: GlcNAc(b1-3)Gal(b1-4)GlcNAc(b1-2)[GlcNAc(b1-3)Gal(b1-4)GlcNAc(b1-6)]Man(a1-6)[GlcNAc(b1-3)Gal(b1-4)GlcNAc(b1-2)Man(a1-3)]Man(b1-4)GlcNAc(b1-4)GlcNAc
Procedure, shortened: as §1

[18] = molecular target: GlcNAc(b1-3)Gal(b1-4)GlcNAc(b1-3)Gal(b1-4)GlcNAc
Procedure, shortened: as §1

[19] = molecular target: GlcNAc(b1-3)Gal(b1-4)GlcNAc(b1-3)Gal(b1-4)GlcNAc(b1-2)Man(a1-3)[GlcNAc(b1-3)Gal(b1-4)GlcNAc(b1-3)Gal(b1-4)GlcNAc(b1-2)Man(a1-6)]Man(b1-4)GlcNAc(b1-4)GlcNAc
Procedure, shortened: as §1

[20] = molecular target: GlcNAc(b1-3)Gal(b1-4)GlcNAc(b1-3)Gal(b1-4)GlcNAc(b1-2)Man(a1-3)[GlcNAc(b1-3)Gal(b1-4)GlcNAc(b1-3)Gal(b1-4)GlcNAc(b1-2)Man(a1-6)]Man(b1-4)GlcNAc(b1-4)[Fuc(a1-6)]GlcNAc
Procedure, shortened: as §1

[21] = molecular target: GlcNAc(b1-3)Gal(b1-4)GlcNAc(b1-3)Gal(b1-4)GlcNAc(b1-2)[GlcNAc(b1-3)Gal(b1-4)GlcNAc(b1-3)Gal(b1-4)GlcNAc(b1-6)]Man(a1-6)[GlcNAc(b1-3)Gal(b1-4)GlcNAc(b1-3)Gal(b1-4)GlcNAc(b1-2)Man(a1-3)]Man(b1-4)GlcNAc(b1-4)[Fuc(a1-6)]GlcNAc
Procedure, shortened: as §1

[22] = molecular target: GlcNAc(b1-3)Gal(b1-4)GlcNAc(b1-3)Gal(b1-4)GlcNAc(b1-3)Gal(b1-4)GlcNAc(b1-2)Man(a1-3)[GlcNAc(b1-3)Gal(b1-4)GlcNAc(b1-3)Gal(b1-4)GlcNAc(b1-3)Gal(b1-4)GlcNAc(b1-2)Man(a1-6)]Man(b1-4)GlcNAc(b1-4)GlcNAc
Procedure, shortened: as §1

[23] = molecular target: GlcNAc(b1-3)Gal(b1-4)GlcNAc(b1-3)Gal(b1-4)GlcNAc(b1-3)Gal(b1-4)GlcNAc(b1-2)Man(a1-3)[GlcNAc(b1-3)Gal(b1-4)GlcNAc(b1-3)Gal(b1-4)GlcNAc(b1-3)Gal(b1-4)GlcNAc(b1-2)Man(a1-6)]Man(b1-4)GlcNAc(b1-4)[Fuc(a1-6)]GlcNAc
Procedure, shortened: as §1

[24] = molecular target: GlcNAc(b1-3)Gal(b1-4)GlcNAc(b1-3)Gal(b1-4)GlcNAc(b1-3)Gal(b1-4)GlcNAc(b1-2)[GlcNAc(b1-3)Gal(b1-4)GlcNAc(b1-3)Gal(b1-4)GlcNAc(b1-3)Gal(b1-4)GlcNAc(b1-6)]Man(a1-6)[GlcNAc(b1-3)Gal(b1-4)GlcNAc(b1-3)Gal(b1-4)GlcNAc(b1-3)Gal(b1-4)GlcNAc(b1-2)Man(a1-3)]Man(b1-4)GlcNAc(b1-4)[Fuc(a1-6)]GlcNAc
Procedure, shortened: as §1

[25] = molecular target: GlcNAc(b1-3)Gal(b1-4)GlcNAc(b1-3)Gal(b1-4)GlcNAc(b1-3)Gal(b1-4)GlcNAc(b1-3)Gal(b1-4)GlcNAc(b1-2)Man(a1-3)[GlcNAc(b1-3)Gal(b1-4)GlcNAc(b1-3)Gal(b1-4)GlcNAc(b1-3)Gal(b1-4)GlcNAc(b1-3)Gal(b1-4)GlcNAc(b1-2)Man(a1-6)]Man(b1-4)GlcNAc(b1-4)GlcNAc
Procedure, shortened: as §1

[26] = molecular target: GlcNAc(b1-3)Gal(b1-4)GlcNAc(b1-3)Gal(b1-4)GlcNAc(b1-3)Gal(b1-4)GlcNAc(b1-3)Gal(b1-4)GlcNAc(b1-2)Man(a1-3)[GlcNAc(b1-3)Gal(b1-4)GlcNAc(b1-3)Gal(b1-4)GlcNAc(b1-3)Gal(b1-4)GlcNAc(b1-3)Gal(b1-4)GlcNAc(b1-2)Man(a1-6)]Man(b1-4)GlcNAc(b1-4)[Fuc(a1-6)]GlcNAc
Procedure, shortened: as §1

[27] = molecular target: GlcNAc(b1-3)Gal(b1-4)GlcNAc(b1-3)Gal(b1-4)GlcNAc(b1-3)Gal(b1-4)GlcNAc(b1-3)Gal(b1-4)GlcNAc(b1-2)[GlcNAc(b1-3)Gal(b1-4)GlcNAc(b1-3)Gal(b1-4)GlcNAc(b1-3)Gal(b1-4)GlcNAc(b1-3)Gal(b1-4)GlcNAc(b1-6)]Man(a1-6)[GlcNAc(b1-3)Gal(b1-4)GlcNAc(b1-3)Gal(b1-4)GlcNAc(b1-3)Gal(b1-4)GlcNAc(b1-3)Gal(b1-4)GlcNAc(b1-2)Man(a1-3)]Man(b1-4)GlcNAc(b1-4)[Fuc(a1-6)]GlcNAc
Procedure, shortened: as §1

[28] = molecular target: GlcNAc(b1-3)Gal(b1-4)GlcNAc(b1-3)Gal(b1-4)GlcNAc(b1-3)GalNAc
Procedure, shortened: as §1

[29] = molecular target: GlcNAc(b1-3)Gal(b1-4)GlcNAc(b1-3)GalNAc
Procedure, shortened: as §1

[30] = molecular target: GlcNAc(b1-3)Gal(b1-4)GlcNAc(b1-3)[GlcNAc(b1-3)Gal(b1-4)GlcNAc(b1-3)]GalNAc
Procedure, shortened: as §1

[31] = molecular target: GlcNAc(b1-3)Gal(b1-4)GlcNAc(b1-6)[Gal(b1-3)]GalNAc
Procedure, shortened: as §1

[32] = molecular target: GlcNAc(b1-3)Gal(b1-4)GlcNAc(b1-6)[GlcNAc(b1-3)Gal(b1-3)]GalNAc
Procedure, shortened: as §1

[33] = molecular target: GlcNAc(b1-3)Gal(b1-4)GlcNAc(b1-6)[GlcNAc(b1-3)]Gal(b1-4)GlcNAc
Procedure, shortened: as §1

GlcNAc(b1-3)GalNAc = molecular target: GlcNAc(b1-3)GalNAc
Procedure, shortened: as §1

GlcNAc(b1-3)Man = molecular target: GlcNAc(b1-3)Man
Procedure, shortened: as §1

[34] = molecular target: GlcNAc(b1-3)[GlcNAc(b1-4)][GlcNAc(b1-6)]GlcNAc
Procedure, shortened: as §1

[35] = molecular target: GlcNAc(b1-3)[GlcNAc(b1-6)]Gal(b1-4)GlcNAc
Procedure, shortened: as §1

[36] = molecular target: GlcNAc(b1-3)[GlcNAc(b1-6)]GalNAc
Procedure, shortened: as §1

[37] = molecular target: GlcNAc(b1-4)Gal(b1-4)GlcNAc
Procedure, shortened: as §1

GlcNAc(b1-4)GlcNAc = molecular target: GlcNAc(b1-4)GlcNAc
Procedure, shortened: as §1

[38] = molecular target: GlcNAc(b1-4)GlcNAc(b1-4)GlcNAc
Procedure, shortened: as §1

[39] = molecular target: GlcNAc(b1-4)GlcNAc(b1-4)GlcNAc(b1-4)GlcNAc(b1-4)GlcNAc
Procedure, shortened: as §1

B1: Langerin K313I (Homo sapiens), Q9UJ71 (protein)
chain: STLNAQIPELKSDLEKASALNTKIRALQGSLENMSKLLKRQNDILQVVSQGWKYFKGNFYYFSLIPKTWYSAEQFCVSRNSHLTSVTSESEQEFLYKTAGGLIYWIGLTKAGMEGDWSWVDDTPFNKVQSARFWIPGEPNNAGNNEHCGNIKAPSLQAWNDAPCDITFLFICKRPYVPSEP
[1]
  glycan array binding signal (z-score): 1.47
[2]
  glycan array binding signal (z-score): 0.315
[3]
  glycan array binding signal (z-score): 0.47
[4]
  glycan array binding signal (z-score): -0.125
[5]
  glycan array binding signal (z-score): 4.2
[6]
  glycan array binding signal (z-score): 0.579
[7]
  glycan array binding signal (z-score): 0.322
[8]
  glycan array binding signal (z-score): -0.233
[9]
  glycan array binding signal (z-score): 0.817
[10]
  glycan array binding signal (z-score): -0.153
[11]
  glycan array binding signal (z-score): 2.23
[12]
  glycan array binding signal (z-score): -0.263
GlcNAc(b1-3)Fuc
  glycan array binding signal (z-score): -0.28
GlcNAc(b1-3)Gal
  glycan array binding signal (z-score): -0.163
[13]
  glycan array binding signal (z-score): 0.444
GlcNAc(b1-3)Gal(b1-4)Glc
  glycan array binding signal (z-score): 1.28
[14]
  glycan array binding signal (z-score): 3.17
[15]
  glycan array binding signal (z-score): -0.033
[16]
  glycan array binding signal (z-score): 0.232
[17]
  glycan array binding signal (z-score): 4.12
[18]
  glycan array binding signal (z-score): 0.512
[19]
  glycan array binding signal (z-score): 2.88
[20]
  glycan array binding signal (z-score): 3.2
[21]
  glycan array binding signal (z-score): 9.38
[22]
  glycan array binding signal (z-score): 0.024
[23]
  glycan array binding signal (z-score): 0.28
[24]
  glycan array binding signal (z-score): 1.78
[25]
  glycan array binding signal (z-score): 0.313
[26]
  glycan array binding signal (z-score): -0.005
[27]
  glycan array binding signal (z-score): 0.653
[28]
  glycan array binding signal (z-score): -0.285
[29]
  glycan array binding signal (z-score): -0.276
[30]
  glycan array binding signal (z-score): -0.088
[31]
  glycan array binding signal (z-score): -0.29
[32]
  glycan array binding signal (z-score): -0.189
[33]
  glycan array binding signal (z-score): 10.1
GlcNAc(b1-3)GalNAc
  glycan array binding signal (z-score): 1.68
GlcNAc(b1-3)Man
  glycan array binding signal (z-score): -0.22
[34]
  glycan array binding signal (z-score): -0.185
[35]
  glycan array binding signal (z-score): 6.18
[36]
  glycan array binding signal (z-score): 2.02
[37]
  glycan array binding signal (z-score): -0.222
GlcNAc(b1-4)GlcNAc
  glycan array binding signal (z-score): -0.189
[38]
  glycan array binding signal (z-score): 1.79
[39]
  glycan array binding signal (z-score): -0.289
